# The full ranking holds about 33,000 sequences; the median of “E-score (-0.5 to 0.5)” is about -0.032, and the highest 2% start at about 0.36. Some of the results follow.
# Biological target: T1, Sko1 (UniProt Q02100)
# T1 sequence: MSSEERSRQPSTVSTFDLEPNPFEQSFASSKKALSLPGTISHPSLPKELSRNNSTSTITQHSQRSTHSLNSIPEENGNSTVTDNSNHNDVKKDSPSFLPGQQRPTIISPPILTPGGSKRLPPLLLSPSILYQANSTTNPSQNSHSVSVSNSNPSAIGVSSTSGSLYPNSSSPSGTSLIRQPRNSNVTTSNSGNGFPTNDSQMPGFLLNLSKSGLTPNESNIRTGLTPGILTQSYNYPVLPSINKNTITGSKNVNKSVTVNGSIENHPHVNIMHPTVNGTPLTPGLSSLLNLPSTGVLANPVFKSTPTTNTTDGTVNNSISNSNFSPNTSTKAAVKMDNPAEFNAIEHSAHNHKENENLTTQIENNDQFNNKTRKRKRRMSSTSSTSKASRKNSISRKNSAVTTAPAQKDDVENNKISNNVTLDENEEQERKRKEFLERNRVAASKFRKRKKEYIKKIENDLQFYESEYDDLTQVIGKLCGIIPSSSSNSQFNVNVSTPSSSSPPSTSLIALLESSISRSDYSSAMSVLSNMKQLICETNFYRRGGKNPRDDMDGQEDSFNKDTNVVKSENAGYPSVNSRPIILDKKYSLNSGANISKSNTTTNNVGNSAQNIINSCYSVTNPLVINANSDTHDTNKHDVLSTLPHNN
# Experiment: PBM E-score (8-mer binding enrichment) (E-score (-0.5 to 0.5)); higher = stronger / more preferred TF binding; most listed sequences are background and not binding sites
# Conditions: protein concentration: 200 nM; construct: GST-full length
# Description: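 Universal 'all 10-mer' protein binding microarrays (Agilent AMADID 015681) probed with GST-tagged S. cerevisiae TFs (full-length or DBD) made by in vitro transcription/translation (PURExpress), about 100-200 nM. Bound TF was detected with fluorescent anti-GST. Each ungapped 8-mer (which stands for itself and its reverse complement) is scored by the PBM enrichment score (E-score), a modified Wilcoxon-Mann-Whitney statistic from -0.5 to +0.5, computed with the Universal PBM Analysis Suite. Scale: above 0.35 generally sequence-specific binding.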
row,Sequence,PBM E-score
1,GTGGTGGA,-0.0823
2,CCCACAGA,0.0156
3,ATCAGATA,-0.0378
4,CGGATAGA,0.0779
5,ATCTTAGG,-0.229
6,AACCTCGT,0.035
7,AGACTAGG,-0.118
8,GGTACCTA,-0.00748
9,CGATTAGA,0.162
10,ACCCCCCA,-0.267
11,CGACTGAA,-0.111
12,CTGTACTC,-0.332
13,ACGCTTCC,-0.0137
14,ACAATGGA,0.0553
15,CGCTCCGA,-0.137
16,GGTGGCCA,-0.0724
17,GAAAGATA,0.228
18,CGTACTAA,0.334
19,AGTGGGCG,-0.0257
20,AATCCGAC,0.0424
21,CAAGCGTG,-0.0414
22,TCTATACA,-0.071
23,GACTAAAC,0.0308
24,CCGTCCCA,-0.0971
25,ATGCTCGA,0.00694

row,Sequence,PBM E-score
1,ATGATAAT,0.205
2,GGCCTGGA,-0.364
3,CACAAGTC,-0.149
4,CTTCGCAA,0.133
5,GGGCCATA,-0.18
6,TATAGCGA,0.00722
7,ACGGATAC,0.125
8,CTTTGACA,0.0712
9,CACCAGCC,-0.202
10,ACCGGTAG,-0.399
11,AAACATGA,0.168
12,TCTCTTAA,0.0633
13,AAAGTGGC,-0.0872
14,GATGGGTA,-0.0503
15,AGTGTCCC,-0.212
16,GCTCATAA,-0.0651
17,ATCAGGTC,-0.138
18,AATAATCG,0.115
19,GCGACTAA,0.0128
20,CGGTTGTC,-0.0935
21,GCCTGTAA,-0.205
22,ATATCTAC,0.0646
23,ATCTTCCA,0.0587
24,AGTTATAG,0.104
25,CCCAGGCC,-0.264

row,Sequence,PBM E-score
1,AGCTCGAC,0.0759
2,ATTACCTA,0.293
3,CGGGTAGC,-0.343
4,ATATAGCC,0.0744
5,ACGTTTGA,0.299
6,GCCAGAAC,-0.282
7,CTTGGCAC,-0.0128
8,CTTGGCCA,-0.115
9,AGCTTTAC,0.105
10,AGGAAGAA,-0.0819
11,CGTTGACA,0.0275
12,GAAAGAAC,-0.0885
13,ACGGGGAC,-0.287
14,AGTGAGAG,-0.129
15,CAGAGACG,0.0896
16,GCCCAGCA,-0.226
17,ACCGCGGA,-0.0522
18,AGATAACC,-0.249
19,ACTACCAA,-0.0265
20,ATGGCCGG,-0.3
21,CCCGCTCA,-0.307
22,AGAAGGAG,-0.164
23,AACGCCAA,0.0776
24,GAGTGATA,0.088
25,GACTGGCA,-0.258

row,Sequence,PBM E-score
1,CAATTGGG,-0.277
2,AGCAATCG,0.0261
3,CTGGGCGC,-0.248
4,AGGATTGA,0.158
5,AGAACCAA,-0.14
6,ACCCAATC,-0.00096
7,CTAACCGA,-0.177
8,CTCTCTGA,-0.181
9,CATTGTTA,0.108
10,CGCATGGA,-0.0774
11,CATTATGG,-0.0468
12,CCTTCGCG,-0.265
13,ATCTTGTC,0.0024
14,CATTCCAG,-0.0293
15,GGAACCCA,-0.118
16,AGTGTGGC,0.061
17,ATGTGGCC,-0.221
18,CAAAACCG,0.0409
19,GATCGAGA,-0.0936
20,AAGCGAGG,-0.214
21,ATGCAGCC,0.0314
22,AGACAGAG,-0.188
23,CGGAATGA,0.107
24,CGACACAC,0.219
25,ATTGCGCA,0.251

row,Sequence,PBM E-score
1,ATTGGTTC,0.0977
2,ATACGGTC,-0.0959
3,GGACTCGA,-0.342
4,CGAAGCTC,-0.138
5,TACCACGA,0.109
6,ACACCACC,-0.217
7,GGCTTCTA,-0.0573
8,ATTCTGTG,0.0485
9,GCCATTCC,-0.127
10,TAACATAA,0.275
11,GACCGCTA,-0.0571
12,GAATGCTA,-0.0644
13,CCTTCATC,-0.13
14,GGTATAAA,-0.0207
15,CGGCAACC,-0.229
16,AGGGAAAT,-0.196
17,CAGTCTAC,-0.174
18,ACTACTTC,-0.111
19,TGCTCTAA,-0.0299
20,CGCTATGC,0.147
21,GATATATA,0.257
22,AGGCGCAG,-0.308
23,AAAGGTCA,-0.0662
24,ATGTTGCA,0.111
25,GTGCCACA,-0.0272

row,Sequence,PBM E-score
1,TACCATAA,0.125
2,AGCGACGA,0.0375
3,GGGACGAC,-0.00738
4,TACAATAA,0.106
5,GCCCAATA,-0.0368
6,ATTGTCAC,0.191
7,AGAGACCG,-0.242
8,CCTAACCA,-0.0611
9,TCACCAGA,-0.147
10,GGGTAGCA,-0.179
11,CCCCGCTA,-0.118
12,GGTCGTTA,-0.0165
13,CATCCGAA,0.00623
14,CGGCCGTC,-0.264
15,AGGCGGCG,-0.0776
16,CACTGCCC,-0.17
17,AAAGCGGA,-0.141
18,CATGGAGC,-0.156
19,GCCGTATA,0.158
20,CTTGGAGC,-0.145
21,GCACCTCC,-0.382
22,CGTTAAAA,-0.0266
23,ACTATCCC,-0.29
24,CGGGTAAG,-0.276
25,GGAACACA,-0.0973

row,Sequence,PBM E-score
1,ACCCCCGG,-0.253
2,AAGAGCGC,-0.00548
3,AGATGCGC,0.0737
4,ACAGTAGC,-0.168
5,GATTGCAA,-0.0446
6,CGAACTAC,0.157
7,ACTATAAC,0.129
8,CTGAGAGC,-0.235
9,AGAGGTCC,-0.258
10,ACGTAGAC,0.415
11,GCCGACGA,-0.118
12,CGATTCGC,-0.0305
13,CCGCATAA,0.0495
14,CCAAGAAG,0.00927
15,CTTTCGTC,0.139
16,AAATCTTA,0.127
17,CGGCACTA,-0.158
18,ACTATTCG,0.179
19,CTGACATA,0.266
20,ACCGAGCC,-0.239
21,TACTAGGA,-0.0768
22,CCAATCGG,-0.117

# Reference: the supplement of paper PMC3334620
